In paper PMC12136788:
The other results are listed elsewhere or left out.

T1: UNK ZnF1-3 (human, UniProt Q9C0B0 31-174)
T1 sequence: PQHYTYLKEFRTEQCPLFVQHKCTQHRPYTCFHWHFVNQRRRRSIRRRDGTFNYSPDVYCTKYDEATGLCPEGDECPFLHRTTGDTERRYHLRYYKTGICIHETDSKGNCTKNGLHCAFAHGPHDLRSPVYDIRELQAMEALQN

B1: chr3:95657547:95657548:-_ENSMUSG00000015748_ENSMUST00000015892|mus_mus|motif|central (ssRNA)
RNA: GGGAGUUCUACAGUCCGACGAUCUUAGACAGCGCCAUUUCGGAGAAAAUGGAGAAUGAGAGCUCCAAUGGGACAAAAAAACGGCACCUCACAAACUUCAGCCCCUGAGACGGAGCCCGAACGUUACACCGGAACCGGAAACCUCAACAGAGGAUUGAGCAUCA
B2: chr3:150289932:150289933:+_ENSG00000144895_ENST00000460851|hu_hu|hu_hu_hu_mus_False|28_108 (ssRNA)
RNA: GGGAGUUCUACAGUCCGACGAUCCUUGUAGUUUUUCACAUCCCAUACUUCCAUUUGUCCUCGAAGAUUUCCAAAUCCAGCCAGCACUAAUAUAUGUCCAUGAGGGCUAUAGUAGGCUGCGUUGCGAGGACCAGUCCCAAAGUCCAACAGAGGAUUGAGCAUCA
B3: chr7:3571038:3571039:+_ENSMUSG00000035674_ENSMUST00000076657|mus_hu|FALSE|FALSE (ssRNA)
RNA: GGGAGUUCUACAGUCCGACGAUCGGGUAGUUGUAGGGCGUGGCCUUGUUGAUCAUGACGGAGUACUUGAAGUAGGGGCUCAAUGGGGGCAGAAUUACAGCGAGGCCCCCGACGACGAAGGACACGACCAGCACUGGCUCCUUGCAACAGAGGAUUGAGCAUCA
B4: chr1:21106938:21106939:-_ENSG00000127483_ENST00000312239|hu_mus|FALSE|FALSE (ssRNA)
RNA: GGGAGUUCUACAGUCCGACGAUCUGGGAGUGCCUUAGGAUGGAUGAGUUCACCUUGAGACAUAUCAGUUGCCAUUUAGAAUAAUGUCUAGGCCUGAGUUAUGGUGAAACUCUGAAGGCUCUGCUGAUAACCACAAGGUUUGUUCAACAGAGGAUUGAGCAUCA
B5: chrX:71549400:71549401:+_ENSMUSG00000019087_ENSMUST00000019231|mus_hu|mus_mus_mus_hu_False|38_48 (ssRNA)
RNA: GGGAGUUCUACAGUCCGACGAUCGCAGUAGGAAGAGGGAAGCUCUUCAGUCCAGUGCGCUGCAGGGUGGGAAAGCAACAACACGGAACCAAUACUCCCUCAAUUCCCCCCACUGGCACAGGGUCACACAAUCUGGGUCAAAGACAACAGAGGAUUGAGCAUCA
B6: chr5:71490253:71490254:+_ENSG00000131711_ENST00000296755|hu_hu|motif|central (ssRNA)
RNA: GGGAGUUCUACAGUCCGACGAUCCUUGAUGUUUGGCUCUGGAUUUUUGAGAUUUUCAGGUACAUUGAGAAAUACAACUCCGGAGUCAGGGGAGAUGAGGUUUUUCAUCCAGUCACUAUUUGUGGUGGAGCCCUGGGACUGUUCCAACAGAGGAUUGAGCAUCA
B7: chr6:114270206:114270207:-_ENSG00000196591_ENST00000368632|hu_hu|FALSE|FALSE (ssRNA)
RNA: GGGAGUUCUACAGUCCGACGAUCUACAACUUCUACACAUUUAGCAUGACCUUUGACUGUUAGAUUGAAACAACCCAGUCUAUCACCAGAUAAUGAGUCUGCACCACACUGUAAUACCACAGCACUAGGUUGAUACAUCUCCAUCAACAGAGGAUUGAGCAUCA
B8: chr14:62207481:62207482:+_ENSG00000100644_ENST00000337138|hu_mus|motif|central (ssRNA)
RNA: GGGAGUUCUACAGUCCGACGAUCGGAACGUAACUGGAAAUCAUCAUCCAUUGGGAUAUAGGGAGCCAGCAUCUCCAAAUCGGAAUCAGUGUCCUGAGUUGAAAAUGGAUUCUUUGCCUCUGUGUCUUCAGCAAACAGUUUUUCCAACAGAGGAUUGAGCAUCA
B9: 134836930_134837572_2942_CDS_ENSMUSG00000023079_ENSMUST00000100650|mouse|control|control (ssRNA)
RNA: GGGAGUUCUACAGUCCGACGAUCGAGGCCCUUCACCUCCACGGCAUCUGGGCUGUCCCGGAUCAGUUUGUAAGGGACCAGCACAGGCCGAUUCAGUCCCAGGGCCUCACCGUAUUUCUCAUUGAAGAGCUCCUUCACCUGCUCCAACAGAGGAUUGAGCAUCA
B10: chr12:13295503:13295504:+_ENSMUSG00000020576_ENSMUST00000042953|mus_mus|motif|central (ssRNA)
RNA: GGGAGUUCUACAGUCCGACGAUCUCCCCGGUAAUUGAUGACCAAGAGCUCUGCAGACCACUGUGCACUGGCUUUGUAUUCGGAAAAUACCAACCCAGCAAUGGCGUAGCUUAAGUCCCCAGCAAAGACAGAUGCCGGGGCAAUCAACAGAGGAUUGAGCAUCA
B11: 71845025_71845145_1816_CDS_ENSG00000119139_ENST00000377245|human|control|control (ssRNA)
RNA: GGGAGUUCUACAGUCCGACGAUCCAGAAUCUGGUCUCCUUCUUGAAGGCCCUCCUGCUCCGCCGAGGUCCCUUCUUGAAUGCCAGCAACAAAUAUCCCGACAUCAUUGCCACCAGCCAACCGGAGGCCCACGCUGUCUCCCUUCAACAGAGGAUUGAGCAUCA
B12: chr5:113341905:113341906:-_ENSMUSG00000042249_ENSMUST00000065167|mus_mus|motif|central (ssRNA)
RNA: GGGAGUUCUACAGUCCGACGAUCAUGGGAACUCUCAAACAGCCAUGUAUCAUAAACCCAUCUGGCUCCUCCUCCCACCCGGUGGAUCCAGGACACACCCUAGCCACAUGCCAGGGUGGAAAGAUGGCCUUUGAGAUGGCGCUACAACAGAGGAUUGAGCAUCA
B13: chr4:17845017:17845018:+_ENSG00000109805_ENST00000514176|hu_mus|hu_hu_hu_mus_False|18_18 (ssRNA)
RNA: GGGAGUUCUACAGUCCGACGAUCGCUCUCUUAACUUGUAUCUUCAUUAAGGAACUCUGCAAGGUUAAGUUUACUUUUCUGUAGCGCAGCUGUUUUGGCUCGUCUGGGUAAUCUCAUUUCAUUUCUGGAUGGUGGUUCAUGAUCCAACAGAGGAUUGAGCAUCA
B14: chr1:202702741:202702742:-_ENSG00000117139_ENST00000367264|hu_mus|FALSE|FALSE (ssRNA)
RNA: GGGAGUUCUACAGUCCGACGAUCUUCAGGAAGACGAACUCGUAUACGCUGUAGGGAGGCCAGCAGAGGCAGAAUUUUCUCUAAUGGAGGCUUCUCUGACCUCCGACAGUGAGGACAAAGCCAGAUUCGGGAGCUUUGUGAAAUCAACAGAGGAUUGAGCAUCA

Molecular target: T1, UNK ZnF1-3
Assay: nsRBNS (natural sequence RNA bind-n-seq); RBNS binding buffer (assumed for nsRBNS): 25 mM Tris pH 7.5, 150 mM KCl, 3 mM MgCl2, 0.01% Triton X-100, 500 ug/ml BSA, 20 U/ml SUPERase-In, 4 C; UNK is unkempt and MSI1 is Musashi-1; names of the RNAs are library labels; protein concentration not given here; high values mean tight binding

Row | Binder | binding signal [enrichment R]
1 | B1 | 1.13
2 | B2 | 0.945
3 | B3 | 1.24
4 | B4 | 0.501
5 | B5 | 1.57
6 | B6 | 0.663
7 | B7 | 1.05
8 | B8 | 1.13
9 | B9 | 0.383
10 | B10 | 0.841
11 | B11 | 0.825
12 | B12 | 0.192
13 | B13 | 0.47
14 | B14 | 1.11
